Source: paper PMC6212790
The other results are listed elsewhere or left out. At the low end of the ranking the order means little.

Each sequence was assayed against T1, GST-Rok-C97-191 (UniProt O34857) (assay: protein binding microarray). Settings: Rok is a gene silencer of Bacillus subtilis; high values mean tight binding; most listed sequences are background and not binding sites; double strand, one strand shown.
T1 sequence: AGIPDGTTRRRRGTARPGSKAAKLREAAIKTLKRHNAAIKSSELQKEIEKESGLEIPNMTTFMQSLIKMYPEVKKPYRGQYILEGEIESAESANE
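Also: rank score from −0.5 (least bound) to 0.5 (best bound).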

| Sequence | binding signal |
| --- | --- |
| CACACCTA | 0.192 E-score |
| TCATAAGA | 0.15 E-score |
| AATAGATT | 0.352 E-score |
| ACGATGGC | -0.15 E-score |
| AATACAGG | -0.0587 E-score |
| AGGATTTA | 0.0283 E-score |
| AACCACGG | 0.0533 E-score |
| AGTGGTTC | -0.175 E-score |
| CGATTATA | 0.261 E-score |
| AGCTGCTC | -0.115 E-score |
| ACGCCAAG | 0.0306 E-score |
| GTACGGAA | 0.197 E-score |
| AGAAGCCG | 0.0948 E-score |
| ACGTCGTC | -0.278 E-score |
| GACTTTAC | -0.0515 E-score |
| ATGGGACC | -0.223 E-score |
| CTCATCGC | -0.091 E-score |
| GAAATCGA | -0.114 E-score |
| ACAGATAG | 0.225 E-score |
| ATTTACAC | 0.181 E-score |
| AAACTAGT | 0.445 E-score |
| ATACCGGC | 0.118 E-score |
| AACATTGA | 0.0527 E-score |
| ATTGGTTC | -0.162 E-score |
| AGAAGTAC | 0.229 E-score |

| Sequence | binding signal |
| --- | --- |
| ATTTTGGA | 0.171 E-score |
| AAGAGTAT | 0.0968 E-score |
| CCCGACAA | -0.322 E-score |
| AAATCACG | 0.17 E-score |
| AAATGCAG | -0.0786 E-score |
| ATGATTAC | 0.0172 E-score |
| GGAACGAA | -0.126 E-score |
| CGGGCCCA | -0.227 E-score |
| CGACCACA | -0.0849 E-score |
| AACCATAC | 0.0656 E-score |
| CGGCTGCA | -0.263 E-score |
| AGCAGCCC | -0.221 E-score |
| CGACTAAC | 0.0924 E-score |
| AAGGTATG | -0.00079 E-score |
| AGGCAATC | -0.0559 E-score |
| ATAGATTG | 0.304 E-score |
| ACGATAAC | 0.171 E-score |
| ATCGAGTG | 0.174 E-score |
| CTCTCTCC | -0.0487 E-score |
| CCCAGGAA | 0.0625 E-score |
| ATCTGCGC | -0.0285 E-score |
| CAGGTCAG | -0.0505 E-score |
| AAGCTAGT | 0.281 E-score |
| CAGTTAGC | -0.0251 E-score |
| TACATTCA | 0.212 E-score |

| Sequence | binding signal |
| --- | --- |
| AGATCACG | -0.00769 E-score |
| ACCCCGCA | -0.265 E-score |
| AGACTGCA | -0.0933 E-score |
| GCGCGATA | 0.18 E-score |
| GGAAACGA | -0.239 E-score |
| CGTGCGCA | -0.203 E-score |
| AGTTCGAA | 0.126 E-score |
| AGGTCGAA | -0.235 E-score |
| AATTTTCG | 0.0664 E-score |
| CTAGGCTA | -0.0639 E-score |
| ATAAGGTG | -0.0756 E-score |
| CGAGTTCA | 0.0768 E-score |
| GCCTTGGA | -0.192 E-score |
| AATGGATA | 0.106 E-score |
| GCGACCTA | -0.0775 E-score |
| GGTATGCA | 0.109 E-score |
| CACGTCTA | -0.179 E-score |
| GCCCAACC | -0.238 E-score |
| CCTCAGCC | -0.314 E-score |
| GGGTATGA | 0.0974 E-score |
| AGATAGCC | 0.0439 E-score |
| GAAACTCC | 0.0382 E-score |
| ACTAACAG | 0.158 E-score |
| ACTGGAAC | 0.0447 E-score |
| ATCTTCCA | -0.0718 E-score |

| Sequence | binding signal |
| --- | --- |
| CTACCTAC | 0.376 E-score |
| GAACGTAA | -0.0744 E-score |
| CCACAGAA | 0.0912 E-score |
| CTGAATCA | -0.0426 E-score |
| GAGTGGTA | 0.208 E-score |
| AATGGAAG | -0.192 E-score |
| ACGCCCGT | -0.183 E-score |
| ACGAACTA | 0.311 E-score |
| AACACAGA | 0.0193 E-score |
| ACTAGAGG | -0.0699 E-score |
| GGTACTAC | 0.233 E-score |
| CTCGGGGC | 0.0371 E-score |
| CAATACTC | 0.0112 E-score |
| AGCCGCAC | -0.188 E-score |
| CCTCGTAA | 0.124 E-score |
| ATTGACCC | -0.177 E-score |
| CAACTCAG | 0.0532 E-score |
| ACTAGAGA | 0.118 E-score |
| ATTGCATG | 0.0708 E-score |
| TATTATAA | 0.25 E-score |
| GGAGCGGA | -0.311 E-score |
| GCGCTTTA | -0.161 E-score |
| TGGTTTAA | 0.0508 E-score |
| CCGAGCTA | -0.103 E-score |
| GCGAGAAC | 0.0535 E-score |

| Sequence | binding signal |
| --- | --- |
| CAGGTTCC | -0.263 E-score |
| GAGGATCC | -0.139 E-score |
| ACAGGTCC | -0.273 E-score |
| CGAAGTCC | -0.0993 E-score |
| AAGGATGG | -0.0809 E-score |
| ATGCGATG | 0.141 E-score |
| CAACATTA | 0.0981 E-score |
| CGGCAGTA | -0.0135 E-score |
| AAGATCGC | 0.0308 E-score |
| GTCACTGA | -0.074 E-score |
| GGATTAGA | 0.105 E-score |
| AGACTAAT | 0.161 E-score |
| CCATACGG | -0.0882 E-score |
| GAATCGTC | 0.057 E-score |
| TCACCCAA | 0.191 E-score |
| AGGCGCGA | -0.181 E-score |
| ATTGGACG | 0.174 E-score |
| GGACGTAA | 0.000609 E-score |
| GTGCGGGA | -0.196 E-score |
| ATAGCGAC | -0.0927 E-score |
| CCGGTGCG | -0.262 E-score |
| AAGGTGAA | -0.151 E-score |
| GGTTTCGA | -0.0944 E-score |
| CTTCCCAA | -0.295 E-score |
| AGTAGGGG | -0.0784 E-score |

| Sequence | binding signal |
| --- | --- |
| ATGGTCTA | 0.0944 E-score |
| GACGAGAA | -0.192 E-score |
| CAGGATGA | -0.017 E-score |
| GAGAGGAA | -0.0944 E-score |
| CAACATTG | -0.0666 E-score |
| TATGAATA | 0.167 E-score |
| CTTTATAA | 0.0683 E-score |
| GCCGGAGC | -0.201 E-score |
| AAGGAAGC | -0.125 E-score |
| ACTGTTAC | 0.156 E-score |
| CGATAAAC | 0.0566 E-score |
| ACTTAACG | -0.0495 E-score |
| GGTACTCA | 0.0516 E-score |
| CCTCGGCA | -0.341 E-score |
| CACAAATG | -0.108 E-score |
| AAACTTCG | -0.00372 E-score |
| GCAACCAA | 0.00758 E-score |
| AGAAGTCA | 0.0184 E-score |
| GCCCCCGA | -0.23 E-score |
| CCAGCTGA | -0.181 E-score |
| GGCCCCGA | -0.245 E-score |
| AAGACGGT | -0.0446 E-score |
| CGCGGGTA | -0.0716 E-score |
| ATGAGAAC | 0.00403 E-score |
| ATCGTTGC | 0.0841 E-score |

| Sequence | binding signal |
| --- | --- |
| ATGCTATA | 0.35 E-score |
| ATCCTAAA | 0.00116 E-score |
| GGCCTCGA | -0.191 E-score |
| AATAGATA | 0.32 E-score |
| AATGTTGC | -0.0243 E-score |
| CACTACCA | 0.0866 E-score |
| TCCTACGA | 0.0386 E-score |
| AAGGTGGG | -0.239 E-score |
| GCGGAATA | 0.173 E-score |
| GGTCAGAC | -0.193 E-score |
| TTCTACAA | 0.362 E-score |
| ACATCTCC | 0.00293 E-score |
| ATACTACC | 0.379 E-score |
| AACCACCT | -0.117 E-score |
| AGAGGCTC | -0.145 E-score |
| ACCCGCAC | -0.157 E-score |
| ACAGTGGC | -0.115 E-score |
| GGGTTCAC | -0.121 E-score |
| AGTCAACC | -0.151 E-score |
| CAGAGATA | 0.215 E-score |
| GAGACCGA | -0.0757 E-score |
| ATCGGCAC | -0.245 E-score |
